# PubChem BioAssay AID904 (National Center for Advancing Translational Sciences (NCATS), 2007)
# Among all 55,000 compounds or so, about 530 (0.96%) were called active. This list was built around the results that the source calls inconclusive (neither active nor inactive); the mix of calls is not that of the screen. The call rests on the fitted dose curve; in most records, active means well fitted cell-killing curve with a large enough effect; inconclusive means small, poorly fitted or top-dose-only effect; inactive means no such curve, though single readings can be large or run the other way. Where the call is inconclusive, the potency comes from a doubtful curve fit.
# Assay: qHTS Screen for Compounds that Selectively Target Cancer Cells with p53 Mutations: Cytotoxicity of p53 Null Cells at the Nonpermissive Temperature; further: nearly all actives have a fitted effect of over 50% in size
# Settings: H1299 p53-null (neo) cells, 39C, ATPlite viability, 24 h; series mostly up to 46.1 µM
# Excerpt: NIH Chemical Genomics Center [NCGC] NIH Molecular Libraries Screening Centers Network [MLSCN] MLSCN Grant: 1 X01 MH079844-01 Assay Submitter (PI): Dr. SUN, YI, University of Michigan NCGC Assay Overview: Synthetic Lethal Screen for Compounds to Kill Cancer Cells with p53 Mutation. Tumor suppressor gene p53 serves as a major cellular barrier against tumorigenesis. […] The goal of this screening is to identify small molecule probes that selectively kill cancer cells with mutations in p53. This screening was carried out using two lines of H1299 lung cancer cells. The H1299-p53 A138V line express a temperature sensitive p53 mutant (p53ts) in which the mutant p53 protein (A138V) is in the mutant confirmation when grown at 39C (the nonpermissive temperature) and in the wild type conformation when grown at 32C (the permissive temperature). A H1299-neo line (p53 null) grown at both 39C and 32C were used as counter-screens to filter out false positive associated with temperature shifting. The small molecular compounds that selectively target mutant p53-containing cancer cells were selected as candidate probes for further study. A cytotoxicity assay based on the measurement of ATP contents in cells was used in this screen. Concentration-responses of all the compounds in the library collection were determined in qHTS using the cell lines and temperature conditions as above.
# NCGC Assay Protocol Summary: Both the H1299-p53A138V and H1299-neo cell lines were provided by Dr.Yi Sun, a PI at the University Michigan. The cells were maintained and cultured at 37C. The resuspended frozen cells were used to plate the cells in the 1536-well assay plates at a density of 600 cells per well in 5 ul medium. The assay plates with the cells were incubated at 37C for 16 to 30 hours before the experiments. The library compounds in DMSO solution were added to the cells in assay plates and incubated 24 hours at 39C (for mutant p53 conformation) or 32C (for normal p53 conformation as control). An ATP_lite assay kit (PerkinElmer) was used to determine the cell viability. Tomaxifen (100uM) was used as the positive control for cell killing. Data were normalized to the controls for basal activity (DMSO only) and 100% killing (100uM tamoxifen). AC50 values were determined from concentration-response data modeled with the standard Hill equation. P53 assay protocol: 1. Reagent; 5 uL H1299-p53A138V or H1299-neo cell cells/well 2. Time; overnight; 37C incubation 3. Compounds; 23 nL; 5.9 nM to 46 uM 4. Controls; 23 nL; Tamoxifen 100 uM 5. Time; 24 hr; 39C incubation 6. Reagent; 3 uL; ATP_Lite reagent 7. Time; 20 min; Room Temperature 8. Detection; Luminescence; Viewlux plate reader Keywords: p53, synthetic lethal, cancer, cell viability, cytotoxicity, H1299 cell line, luminescence, MLSMR, MLSCN, NIH Roadmap, qHTS, NCGC
# Potency means the concentration at half of the fitted maximal effect; tags describe the fitted curve by direction and shape.
row,Structure (SMILES),Potency
1,COc1ccc(C)cc1NC(=O)c1ccc2c(Cl)c3c(nc2c1)CCC3,"inconclusive: 1 µM [cytotoxic, full curve, poor fit]"
2,O=C(Nc1ccc(Cl)c(Cl)c1)N1CCC(c2ccccc2)C1 (stereo not drawn),"inconclusive: 5.01 µM [cytotoxic, partial curve]"
3,Cc1cccn2c(=O)cc(COc3cccc(NC(=O)c4ccccc4F)c3)nc12,active: 7.94 µM
4,CCCCN(CC)C(=O)Nc1ccc2c(c1)N(C)C(=O)c1ccccc1S2,"inconclusive: 31.6 µM [cytotoxic, single point]"
5,CCOc1ccc(CCNc2nc3c(-c4ccc(C)cc4)nnn3c3ccccc23)cc1OCC,"inconclusive: 0.005 µM [cytotoxic, full curve, poor fit]"
6,COc1ccccc1C(=O)Nc1ccc(-c2nc3ccccc3s2)c(C)c1,"inconclusive: 12.6 µM [cytotoxic, partial curve]"
7,CC1CCCCN1CC(=O)N1CCCc2c1c(=O)oc1ccc(OCc3ccccc3)cc21 (stereo not drawn),"inconclusive: 15.8 µM [cytotoxic, single point]"
8,COc1ccc(-c2nc3ccccc3n2Cc2ccc(Cl)cc2)cc1,active: 3.98 µM
9,COC(=O)c1sc(-c2ccccc2)cc1NC(=O)Nc1ccc(F)cc1,"inconclusive: 35.5 µM [cytotoxic, single point]"
10,O=C(NCC1(c2ccccc2)CCCC1)C(=O)NCC1(c2ccccc2)CCCC1,inactive
11,Cc1ccc(NS(=O)(=O)c2cc(-c3cc(C)no3)ccc2C)c(Cl)c1,"inconclusive: 8.91 µM [cytotoxic, partial curve]"
12,CCOc1cc(C(=O)Nc2ccc(NC(=O)c3cc4ccccc4o3)c(OC)c2)cc(OCC)c1OCC,inactive
13,COc1ccc(NC(=O)CSC2=Nc3ccccc3N=C(c3ccc(F)cc3)C2)cc1OC,"inconclusive: 0.1 µM [cytotoxic, full curve, poor fit]"
14,COc1cccc(CNCc2cccn2-c2nnc(N3CCN(c4ccccc4)CC3)s2)c1,"inconclusive: 12.6 µM [cytotoxic, partial curve]"
15,Cc1cc(N2CCN(C)CC2)nc2ccc(NC(=O)Nc3ccccc3)cc12,"inconclusive: 31.6 µM [cytotoxic, single point]"
16,COc1ccc(NS(=O)(=O)c2ccc3[nH]c4c(c3c2)CCCC4)c(OC)c1,inactive
17,CCOc1ccc(Nc2nc3ccccc3c3nnc(CC)n23)cc1,"inconclusive: 25.1 µM [cytotoxic, single point]"
18,Cc1cccc(-c2noc(-c3ccc(N4CCCC4)c([N+](=O)[O-])c3)n2)c1,inactive
